Reference: the supplement of paper PMC10369915
Some of the results follow. Cut-off read from the data, not from the text of the source: active = 3.2 or more and inactive = the rest. Only a few entries rise above the background.

Legend:
Assay in all cases: enrichment score (SH2-bound / input frequency) (ratio); bacterial display of known human phosphotyrosine sites (pTyr-Var adds point mutants) read by sequencing; higher = stronger binding; tyrosines were phosphorylated by kinases first
Details in all cases: peptide library: pTyr-Var
SHP2 C-SH2 domain E139D = target: SHP2 C-SH2 domain E139D
[1] = target: SHP2 C-SH2 domain wild-type
SHP2 N-SH2 domain L43F = target: SHP2 N-SH2 domain L43F
SHP2 N-SH2 domain T42A = target: SHP2 N-SH2 domain T42A
SHP2 N-SH2 domain T52S = target: SHP2 N-SH2 domain T52S
[2] = target: SHP2 N-SH2 domain wild-type
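Note: displayed peptides selected on beads carrying the immobilized SH2 domain, with library peptides lacking any tyrosine serving as negative controls.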

Binder	enrichment score (SHP2 C-SH2 domain E139D)	enrichment score [1]	enrichment score (SHP2 N-SH2 domain L43F)	enrichment score (SHP2 N-SH2 domain T42A)	enrichment score (SHP2 N-SH2 domain T52S)	enrichment score [2]
QMVDMYASSFM [AVPR2_Y124_G122D_YF]	inactive: 0.872	inactive: 0.753	inactive: 1	inactive: 0.966	inactive: 1.06	inactive: 1.04
VDSGVYAVPPP [BCAR1_Y410]	inactive: 0.63	inactive: 0.534	inactive: 0.645	inactive: 0.47	inactive: 0.712	inactive: 0.747
KFEDVYVRICL [B3GALNT1_Y269_G271R]	inactive: 0.772	inactive: 1.16	inactive: 0.892	inactive: 0.692	inactive: 0.615	inactive: 0.947
KTDKKYLMIEE [BAG3_Y451]	inactive: 0.792	inactive: 0.71	inactive: 0.691	inactive: 0.633	inactive: 0.698	inactive: 0.723
YIRKDYEACKA [BBS4_Y48]	inactive: 0.628	inactive: 0.557	inactive: 0.611	inactive: 0.613	inactive: 0.749	inactive: 0.614
QDIMAYRGREV [BCL6_Y157]	inactive: 0.336	inactive: 0.562	inactive: 0.618	inactive: 0.433	inactive: 0.44	inactive: 0.439
LMIEEYLTKEP [BAG3_Y457_L462P]	inactive: 0.816	inactive: 0.843	inactive: 0.686	inactive: 0.524	inactive: 0.567	inactive: 0.636
QMVRMYASSFM [AVPR2_Y124_G122R_YF]	inactive: 0.479	inactive: 0.583	inactive: 0.642	inactive: 0.515	inactive: 0.447	inactive: 0.605
DLEKTYNTYRS [B4GALNT2_Y538_A533D]	inactive: 0.8	inactive: 0.602	inactive: 0.638	inactive: 0.529	inactive: 0.606	inactive: 0.867
REEKNYKHKET [BCLAF1_Y459_L461H]	inactive: 0.986	inactive: 0.891	inactive: 0.738	inactive: 0.907	inactive: 0.491	inactive: 0.725
HPFHVYSQPGM [BAG3_Y114_P115S]	inactive: 1.69	inactive: 1.1	inactive: 1.66	inactive: 1.61	inactive: 1.42	inactive: 1.14
VMSMNYRVGAL [BCHE_Y174_V170M]	inactive: 1.07	inactive: 0.884	inactive: 0.958	inactive: 0.971	inactive: 1.03	inactive: 1.25
TMKSHYMELYD [BBS2_Y644_R643H]	inactive: 0.885	inactive: 1.37	inactive: 2.79	active: 4.91	inactive: 3.01	inactive: 1.21
RREWFYEVIIV [BACE1_Y260_YF]	inactive: 0.544	inactive: 0.327	inactive: 0.364	inactive: 0.242	inactive: 0.329	inactive: 0.274
KMATAYIRRMS [BCO1_Y264]	inactive: 0.205	inactive: 0.522	inactive: 0.267	inactive: 0.252	inactive: 0.212	inactive: 0.265
HPFHVYPQPGM [BAG3_Y114]	inactive: 1.84	inactive: 1.43	inactive: 1.76	inactive: 1.4	inactive: 1.82	inactive: 1.76
HFMELYDLNRD [BBS2_Y648_R643H_YF]	inactive: 1.74	inactive: 2.08	inactive: 2.65	inactive: 1.39	inactive: 1.93	inactive: 2.31
REEKNDKLKET [BCLAF1_Y459_Y459D]	inactive: 0.451	inactive: 0.53	inactive: 0.388	inactive: 0.307	inactive: 0.44	inactive: 0.438
NALVQYQEMEK [BBS4_Y395_A393V]	inactive: 0.598	inactive: 0.813	inactive: 0.884	inactive: 1.88	inactive: 0.818	inactive: 0.829

Binder	enrichment score (SHP2 C-SH2 domain E139D)	enrichment score [1]	enrichment score (SHP2 N-SH2 domain L43F)	enrichment score (SHP2 N-SH2 domain T42A)	enrichment score (SHP2 N-SH2 domain T52S)	enrichment score [2]
RREWYYEVIIA [BACE1_Y260_V265A]	inactive: 0.275	inactive: 0.217	inactive: 0.286	inactive: 0.425	inactive: 0.305	inactive: 0.154
TAGEPYHDIRF [BAP1_Y223]	inactive: 0.633	inactive: 0.75	inactive: 0.795	inactive: 0.842	inactive: 0.43	inactive: 0.643
QMVGMYASSYM [AVPR2_Y124]	inactive: 0.687	inactive: 0.816	inactive: 0.96	inactive: 0.724	inactive: 0.892	inactive: 0.852
QMVRMYASSYM [AVPR2_Y124_G122R]	inactive: 0.561	inactive: 0.506	inactive: 0.606	inactive: 0.685	inactive: 0.466	inactive: 0.497
QMVGMYAFSYM [AVPR2_Y124_S126F]	inactive: 0.82	inactive: 0.845	inactive: 1.03	inactive: 0.647	inactive: 0.659	inactive: 1.22
LIHLHYIRRDY [BBS4_Y43_K46R]	inactive: 1.25	inactive: 0.856	inactive: 1.04	inactive: 0.907	inactive: 1.08	inactive: 0.961
TMKSHYMELFD [BBS2_Y644_R643H_YF]	inactive: 1.11	inactive: 1.29	active: 3.52	active: 7.68	active: 3.92	inactive: 1.36
KTDKKYLMIKE [BAG3_Y451_E455K]	inactive: 0.889	inactive: 0.926	inactive: 0.941	inactive: 0.685	inactive: 0.781	inactive: 0.909
CRAVKYLQMVD [AVPR2_Y117_G122D]	inactive: 0.705	inactive: 0.783	inactive: 0.959	inactive: 1.43	inactive: 0.806	inactive: 0.921
DLEKTYNTFRS [B4GALNT2_Y538_A533D_YF]	inactive: 0.86	inactive: 1.08	inactive: 1.21	inactive: 1.07	inactive: 1.14	inactive: 1.23
RYMELYDLNRD [BBS2_Y648]	inactive: 0.929	inactive: 1.06	inactive: 2.46	active: 4.35	inactive: 3.01	inactive: 1.08
QLRPGYFPIPV [BAG3_Y93_I94F]	inactive: 1.06	inactive: 0.947	inactive: 0.939	inactive: 0.886	inactive: 0.948	inactive: 0.975
VSRGRYRPEEC [B4GALT4_Y113_Q116E]	inactive: 0.241	inactive: 0.234	inactive: 0.256	inactive: 0.204	inactive: 0.219	inactive: 0.228
REEKNYKLKET [BCLAF1_Y459]	inactive: 0.533	inactive: 0.452	inactive: 0.451	inactive: 0.378	inactive: 0.621	inactive: 0.433
LMIEEYLTKEL [BAG3_Y457]	inactive: 1.22	inactive: 0.779	inactive: 1.04	inactive: 1.08	inactive: 1.03	inactive: 0.966
LIHLHYIRKDY [BBS4_Y43]	active: 3.72	active: 3.31	active: 3.8	inactive: 2.71	active: 3.43	inactive: 2.75
APIEDYGGGGG [B4GALT6_Y382]	inactive: 1.12	inactive: 0.541	inactive: 0.697	inactive: 0.433	inactive: 0.627	inactive: 0.661
NRLTDYFEPLL [BBS10_Y536_YF]	inactive: 0.998	inactive: 1	inactive: 1.08	inactive: 0.965	inactive: 0.948	inactive: 0.874
